Laboratory results taken from PubChem BioAssay AID360 (National Center for Advancing Translational Sciences (NCATS), 2006).
Among all 48,000 compounds or so, about 550 (1.1%) were called active. Not shown: some 4% with an inconclusive outcome. No stated cut-off is given here; in the data, active means potency below about 15 µM; inconclusive means mostly about 16 µM to 33 µM; inactive means weaker than that. This is one part of the list.

The compounds below were run against Lysosomal acid glucosylceramidase (Homo sapiens) (UniProt P04062) (assay: Glucocerebrosidase). Conditions: purified enzyme, resorufin glucoside fluorescence (screen aimed at inhibitors), 20 min.
How it was run: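 Wild-type enzyme at 0.2 nM final in 50mM citric acid/KH2PO4, 10mM sodium taurocholate, 0.01% tween-20, pH 5.9, with resorufin beta-D-glucopyranoside at 30 uM final. Compounds titrated, 20 min at RT, red fluorescence read; AC50 from titration.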
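Further: the screen sought inhibitors.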
Potency means the concentration at half of the fitted maximal effect.

Sequence of UniProt P04062 (P04062 whole entry, looked up): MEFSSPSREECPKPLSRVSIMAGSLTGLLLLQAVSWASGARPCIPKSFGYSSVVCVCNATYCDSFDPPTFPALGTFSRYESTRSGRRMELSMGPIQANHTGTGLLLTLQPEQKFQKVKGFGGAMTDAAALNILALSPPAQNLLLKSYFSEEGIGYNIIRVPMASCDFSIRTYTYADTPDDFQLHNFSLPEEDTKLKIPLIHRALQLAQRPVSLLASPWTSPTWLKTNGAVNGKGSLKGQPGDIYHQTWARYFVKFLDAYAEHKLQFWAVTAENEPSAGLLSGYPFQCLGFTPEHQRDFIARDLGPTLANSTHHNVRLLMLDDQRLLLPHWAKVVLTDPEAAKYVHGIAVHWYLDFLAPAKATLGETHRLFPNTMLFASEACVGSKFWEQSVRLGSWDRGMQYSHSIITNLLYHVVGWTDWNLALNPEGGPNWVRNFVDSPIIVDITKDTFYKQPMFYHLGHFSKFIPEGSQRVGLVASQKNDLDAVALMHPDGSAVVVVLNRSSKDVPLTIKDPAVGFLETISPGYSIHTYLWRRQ

| SMILES | Potency |
| --- | --- |
| Cn1c(N)c(C(=O)CSc2nc3ccccc3n2-c2ccccc2)c(=O)n(C)c1=O | inactive: > 76.9 µM |
| O=C(O)C1CC=CCC1C(=O)NCc1ccccc1 (stereo unspecified) | inactive: > 76.9 µM |
| COc1ccc(C2C3=C(CC(C)(C)CC3=O)Nc3c2c(=O)[nH]c(=O)n3Cc2ccccc2)cc1OC (stereo unspecified) | inactive: > 76.9 µM |
| COc1ccc(-c2nnc(SCC(=O)N3CCCC3)o2)cc1OC | inactive: > 76.9 µM |
| COc1cc(NC(=O)C2COc3ccccc3O2)c(OC)cc1Cl (stereo unspecified) | inactive: > 76.9 µM |
| COC(=O)C1CCN(C(=O)CCCOc2ccccc2)CC1 | inactive: > 76.9 µM |
| CC(C)c1cc(C(=O)O)on1 | inactive: > 76.9 µM |
| C=C(C)COc1ccc(-c2[nH]ncc2-c2ccccc2OC)c(O)c1 | inactive: > 76.9 µM |
| CCC(=O)N1CCc2cc(S(=O)(=O)NCCC(=O)N3CCc4ccccc4C3)ccc21 | inactive: > 76.9 µM |
| Cc1ccc(S(=O)(=O)N2CCC(C(=O)N3CCC(C(=O)NCc4cccnc4)CC3)CC2)cc1 | inactive: > 76.9 µM |
| Cc1ccc(C)c2[nH]c(=O)c(CN(Cc3ccco3)S(=O)(=O)c3ccc4c(c3)OCCO4)cc12 | inactive: > 76.9 µM |
| CC(=O)N1c2c(cc(Br)cc2S(=O)(=O)N2CCN(C(=O)c3ccco3)CC2)CC1C (stereo unspecified) | inactive: > 76.9 µM |
| COc1ccc(CCNC(=O)COc2nsnc2N2CCOCC2)cc1OC | inactive: > 76.9 µM |
| COc1ccccc1NC(=O)c1cccc(NC(=O)c2ccco2)c1 | inactive: > 76.9 µM |
| CCOc1ccc(CCNC(=O)C2CCN(c3nn4c(=O)cc(C)nc4s3)CC2)cc1OCC | inactive: > 76.9 µM |
| Cc1ccc(Cl)cc1NC(=O)C1CCCN(S(=O)(=O)c2c(C)noc2C)C1 (stereo unspecified) | inactive: > 76.9 µM |
| CNC(=O)c1ccc(OCc2ccccc2)c(OC)c1 | inactive: > 76.9 µM |
| COc1ccc2c(CN(C)c3ccccc3)cc(=O)oc2c1 | inactive: > 76.9 µM |
| c1n[nH]c(NCc2ccc3c(c2)OCO3)n1 | inactive: > 76.9 µM |
| O=C(COC(=O)c1ccco1)Nc1cccc(Br)c1 | inactive: > 76.9 µM |
| Cc1csc(=O)n1CCC(=O)O | inactive: > 76.9 µM |
| CCSC1=C(C#N)C(c2cccc(Br)c2)CC(=O)N1 (stereo unspecified) | inactive: > 76.9 µM |
| Fc1ccc(-c2nc3nc4ccccc4nc3n2Cc2ccco2)cc1 | inactive: > 76.9 µM |

| SMILES | Potency |
| --- | --- |
| Cc1noc(C)c1COc1cccc(C(=O)N2CCN(C/C=C/c3ccccc3)CC2)c1 | inactive: > 76.9 µM |
| COC(=O)C(CC(=O)c1ccc(Br)cc1)n1ccnc1 (stereo unspecified) | inactive: > 76.9 µM |
| O=C(O)c1cccc2c1C(=O)N(Cc1ccncc1)C2 | inactive: > 76.9 µM |
| COc1cccc(CNc2ccc(F)c(Cl)c2)c1O | inactive: > 76.9 µM |
| CCOc1ccccc1N1CCN(C(=O)c2cc3c(s2)CCC3)CC1 | inactive: > 76.9 µM |
| CCN(C(=O)c1cc2cc3ccc(C)cc3nc2o1)c1ccc(OC)cc1 | inactive: > 76.9 µM |
| Cc1ccc(C(=O)Nc2cccc(C(=O)NCc3ccccc3)c2)o1 | inactive: > 76.9 µM |
| COc1ccccc1N(CC(=O)NC1CCCC1)C(=O)c1csnn1 | inactive: > 76.9 µM |
| COc1cc(C(=O)Nc2ccc3c(c2)OCCO3)ccc1OC(C)C | inactive: > 76.9 µM |
| CCC(=O)c1ccc(OCC(O)Cn2c(C)nc3ccccc32)cc1 (stereo unspecified) | inactive |
| COc1ccc(N2C(=O)C(Cl)=C(N3CCCC3)C2=O)cc1 | inactive: > 76.9 µM |
| COc1ccccc1-c1nc(C#N)c(N2CCC(Cc3ccccc3)CC2)o1 | inactive: > 76.9 µM |
| NC(=O)C1CCN(C(=O)c2cc(S(=O)(=O)N3CCOCC3)c(Cl)cc2Cl)CC1 | inactive: > 76.9 µM |
| COc1ccc(NC(=O)CCNC(C)=O)cc1NS(=O)(=O)c1ccc(F)cc1 | inactive: > 76.9 µM |
| NS(=O)(=O)c1ccc(CCNc2cc(=O)n(Cc3ccc(F)cc3)c(=O)[nH]2)cc1 | inactive: > 76.9 µM |
| COc1ccc(OC)c(S(=O)(=O)N2Cc3ccccc3CC2C(=O)Nc2nccs2)c1 (stereo unspecified) | inactive: > 76.9 µM |
| Cc1cc(C)n2nc(CCc3nc4nc(C)cc(C)n4n3)nc2n1 | inactive: > 76.9 µM |
| Cc1occc1C(=O)Nc1cc(C(C)(C)C)on1 | inactive: > 76.9 µM |
| c1ccc(C2=NCCCN2)cc1 | inactive: > 76.9 µM |
| O=C(c1ccccc1Br)N1CCN(c2ccccc2)CC1 | inactive: > 76.9 µM |
| O=C(O)C1C2C=CC(C2)C1C(=O)OCc1ccccc1 (stereo unspecified) | inactive: > 76.9 µM |
| O=C(Nc1ccccn1)C1CCN(S(=O)(=O)c2cccc3nonc23)CC1 | inactive: > 76.9 µM |
| CCOC(=O)CN(C(=O)CSc1nnc(-c2ccncc2)n1CCCN(C)C)c1ccccc1 | inactive: > 76.9 µM |

| SMILES | Potency |
| --- | --- |
| Cc1ccc(S(=O)(=O)N(C)CC(=O)NC2CCCC2)cc1 | inactive: > 76.9 µM |
| CC(=O)c1c(C)[nH]c(C(=O)NCCCN2CCCC2)c1C | inactive: > 76.9 µM |
| CC(=O)Nc1cc2c(cc1NC(=O)Cn1nc(-c3ccccc3F)ccc1=O)OCCO2 | inactive: > 76.9 µM |
| CC(C)Cn1c2c(c(O)c(C(=O)Nc3nccs3)c1=O)CCCC2 | inactive: > 76.9 µM |
| O=C(Nc1cc(C(=O)N2CCCC2)ccc1N1CCCC1)c1ccccc1F | inactive: > 76.9 µM |
| NC(=O)c1nsnc1-c1ccccc1O | inactive: > 76.9 µM |
| COc1ccc(C)cc1NC(=O)c1cc2c(C)nc3ccccc3c2o1 | inactive: > 76.9 µM |
| Cc1nc(N2CCN(Cc3ccc4c(c3)OCO4)CC2)nc2c1C(=O)CC(c1ccco1)C2 (stereo unspecified) | inactive: > 76.9 µM |
| Cc1cc(C(=O)CSc2n[nH]c(N)n2)c(C)n1-c1cc(F)ccc1F | inactive |
| CCOC(=O)C1CCCN(C(=O)C2CCN(S(=O)(=O)CC)CC2)C1 (stereo unspecified) | inactive: > 76.9 µM |
| Oc1ccc(C=Nc2cccc3ncccc23)c(O)c1 | inactive: > 76.9 µM |
| O=C(NCCc1ccncc1)Nc1ccccc1 | inactive: > 76.9 µM |
| Cc1ccc(NC(=O)CC2SC3=NCCN3C2=O)cc1 (stereo unspecified) | inactive: > 76.9 µM |
| O=C(CN(c1ccc(F)cc1)S(=O)(=O)c1ccc2c(c1)OCCO2)NCC1CCCO1 (stereo unspecified) | inactive: > 76.9 µM |
| CCCc1cc(=O)oc2cc(C)cc(OCC(=O)O)c12 | inactive: > 76.9 µM |
| CC1CCc2c(nc3ncnn3c2N2CCN(c3ccccc3F)CC2)C1 (stereo unspecified) | inactive: > 76.9 µM |
| CCC(C)(C)n1nnnc1C(c1cccc(C#N)c1)N1CCN(c2cc(C)ccc2C)CC1 (stereo unspecified) | inactive: > 76.9 µM |
| COc1nc2ccc(C)cc2cc1-c1noc(-c2cccnc2)n1 | inactive: > 76.9 µM |
| CC1CCCC(NC(=O)C2CCN(S(=O)(=O)N3CCC4(CC3)OCCO4)CC2)C1C (stereo unspecified) | active: 14 µM |
| ON1C2CCCCC2N(O)C1c1c(F)c(F)c(F)c(F)c1F (stereo unspecified) | inactive: > 76.9 µM |
| NCCCCCc1nnc(SCC(=O)Nc2cccc(Cl)c2)o1 | inactive: > 76.9 µM |
| Cc1cccc(NC(=O)CSc2nnc(Cn3nnc(-c4ccccc4)n3)n2-c2ccccc2)c1 | inactive: > 76.9 µM |
| Cn1c(=O)c(-c2ccccc2)nn2c3ccccc3nc12 | inactive: > 76.9 µM |

| SMILES | Potency |
| --- | --- |
| CCCCC(C(=O)O)C(C)CC(=O)Nc1ccn(-c2ccccc2)n1 (stereo unspecified) | inactive: > 76.9 µM |
| O=c1cc2n(c(=O)[nH]1)CCC1=C2CCCC1 | inactive: > 76.9 µM |
| O=C(c1ccccc1)c1cccn1CC(=O)N1CCN(c2ccc(F)cc2)CC1 | inactive: > 76.9 µM |
| COc1ccc(-c2nnc3n2N=C(c2cccc(Br)c2)CS3)cc1OC | inactive: > 76.9 µM |
| O=C(CCNS(=O)(=O)c1cccc2nsnc12)N1CCN(c2ccccn2)CC1 | inactive: > 76.9 µM |
| CCc1ccc(N2CC(C(=O)NC3=NCCS3)CC2=O)cc1 (stereo unspecified) | inactive: > 76.9 µM |
| CCOC(=O)Cn1nnc(-c2ccc(OCC(C)C)cc2)n1 | inactive: > 76.9 µM |
| CCOc1ccc(C(=O)N(CN2CCCC2=O)c2ccc(C)cc2)cc1 | inactive: > 76.9 µM |
| Cn1c(=O)c2c(O)cc(=O)[nH]c2n(-c2ccccc2)c1=O | inactive: > 76.9 µM |
| COc1cccc(NC(=O)C2C3CC4OC(=O)C2C4C3)c1 (stereo unspecified) | inactive: > 76.9 µM |
| O=C(Nc1nnc(Cc2ccccc2)s1)c1cccs1 | inactive: > 76.9 µM |
| Cc1cc(C)n(C(=O)CNC(=O)Cc2ccccc2)n1 | inactive: > 76.9 µM |
| O=C1CN(CC(=O)N2CCCCC2)c2ccccc2O1 | inactive: > 76.9 µM |
| COc1ccc(S(=O)(=O)NCC(c2cccnc2)N2CCN(c3ccccc3OC)CC2)cc1C (stereo unspecified) | inactive: > 76.9 µM |
| CCO/C=C/C(O)(CNC(=O)COc1ccccc1F)C(F)(F)F (stereo unspecified) | inactive: > 76.9 µM |
| Cc1[nH]c(=O)[nH]c(=O)c1NC(=O)CSc1ncccc1-c1nc2ccccc2[nH]1 | inactive: > 76.9 µM |
| COc1cccc(C(=O)Nc2c(C)n[nH]c2C)c1 | inactive: > 76.9 µM |
| N#Cc1ccccc1OCC(=O)Nc1c(C(=O)C2CC2)oc2ccccc12 | inactive: > 76.9 µM |
| COc1cccc(CNC(=O)C2CCN(c3cnccn3)CC2)c1 | inactive: > 76.9 µM |
| O=C(CSc1nc2c(c(=O)n1-c1ccc(Cl)cc1)SCC2)NCc1ccco1 | inactive: > 76.9 µM |
| Cc1ccccc1-c1nnn(CC(=O)NCc2ccc3c(c2)OCO3)n1 | inactive: > 76.9 µM |
| Cc1cc(C)n(-c2nc3ccccc3nc2N2CCCCCC2)n1 | inactive: > 76.9 µM |
